# According to the supplement of paper PMC3334620:
# In all, about 33,000 sequences were measured (“E-score (-0.5 to 0.5)”: median about -0.021, highest 2% from about 0.32 on). This is one part of the list.
# Target: T1, Zap1 (UniProt P47043)
# T1 sequence: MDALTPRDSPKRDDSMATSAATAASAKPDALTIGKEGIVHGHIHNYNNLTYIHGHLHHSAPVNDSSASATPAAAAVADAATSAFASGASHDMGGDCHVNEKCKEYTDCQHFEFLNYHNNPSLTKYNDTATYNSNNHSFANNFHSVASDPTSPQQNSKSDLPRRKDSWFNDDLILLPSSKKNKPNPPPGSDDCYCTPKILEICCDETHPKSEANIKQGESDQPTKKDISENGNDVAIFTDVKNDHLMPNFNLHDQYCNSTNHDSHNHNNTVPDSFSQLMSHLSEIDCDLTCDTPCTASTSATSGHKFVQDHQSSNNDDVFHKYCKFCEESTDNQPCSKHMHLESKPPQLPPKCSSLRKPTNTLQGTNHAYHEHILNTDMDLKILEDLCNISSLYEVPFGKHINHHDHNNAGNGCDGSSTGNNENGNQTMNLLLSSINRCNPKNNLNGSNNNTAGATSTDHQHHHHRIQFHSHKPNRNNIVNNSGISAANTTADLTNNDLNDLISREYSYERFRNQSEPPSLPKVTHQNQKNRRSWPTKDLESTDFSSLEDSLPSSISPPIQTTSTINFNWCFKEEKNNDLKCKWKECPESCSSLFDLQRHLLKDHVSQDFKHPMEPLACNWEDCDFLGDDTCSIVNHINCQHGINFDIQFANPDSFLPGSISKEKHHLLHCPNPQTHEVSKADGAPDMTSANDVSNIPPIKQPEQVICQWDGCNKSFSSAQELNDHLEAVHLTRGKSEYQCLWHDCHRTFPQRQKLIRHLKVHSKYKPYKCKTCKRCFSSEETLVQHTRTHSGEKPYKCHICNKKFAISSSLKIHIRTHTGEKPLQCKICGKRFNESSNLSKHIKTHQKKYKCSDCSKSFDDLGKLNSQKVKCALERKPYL
# Assay: PBM E-score (8-mer binding enrichment) (E-score (-0.5 to 0.5)); higher = stronger / more preferred TF binding; most listed sequences are background and not binding sites
# Settings: protein concentration: 200 nM; construct: GST-full length
# In short: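 GST-tagged yeast TFs (full-length or DNA-binding domain) were made by PURExpress in vitro transcription/translation and applied at about 100-200 nM to universal all-10-mer Agilent arrays. The arrays were made double-stranded by primer extension, on fresh or once-stripped slides. Bound protein was detected with fluorescent anti-GST, and scans were normalised with masliner. Each ungapped eight-base word, pooled with its reverse complement, received an E-score (modified Wilcoxon-Mann-Whitney statistic) from the Universal PBM Analysis Suite.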
row,Sequence,PBM E-score
1,AGCGACAG,-0.0664
2,AGCATGGA,-0.212
3,CATCAAGA,0.0759
4,AACGTAAC,0.171
5,AAAAGTCT,-0.111
6,TGAATACA,0.0584
7,ATATATCG,0.19
8,AAGTCGTA,-0.156
9,CAGACCTC,-0.0696
10,ACTCCCTG,0.00959
11,GGGGGCAA,-0.293
12,AGTCAACA,0.055
13,CAGGGCAA,-0.082
14,GTACAATA,0.105
15,TACGGCGA,-0.0194
16,GGCGGCGA,-0.052
17,AGAGCATC,-0.253
18,CCGAGTAC,-0.181
19,CCTATAAC,0.171
20,CACCCGAG,0.124
21,ACTTGGCT,-0.141
22,AGCTATTC,-0.233
23,CTAACAGA,0.0933
24,GGCGCTCA,-0.256
25,GATCTCCC,-0.288

row,Sequence,PBM E-score
1,ACAACAAT,0.0383
2,ATGCAGTC,-0.156
3,AGCTCCTG,-0.231
4,AATAAAGG,0.204
5,TGAGTTAA,0.054
6,AGGGCACC,0.04
7,CCCAAGAG,0.0665
8,AGAAGCCG,-0.176
9,GTGGTGTA,0.0957
10,AGCGACTC,-0.17
11,GCTAGTCA,-0.181
12,CGCAGAGA,-0.127
13,GGTGAAAA,0.188
14,AATAAATA,0.248
15,AGAGGGGC,-0.0969
16,GCTGTAAC,0.235
17,AATCACCC,0.307
18,AAAGATAC,0.0365
19,ACCGCCTC,0.105
20,CAGATTTA,0.19
21,ACGGGACA,0.0113
22,AAGGCAAC,0.0268
23,CTATTCAG,0.11
24,AAGGTCGC,0.193
25,ACAGATCT,-0.0411

row,Sequence,PBM E-score
1,AATTGAGG,0.219
2,AAGATCCT,0.0919
3,GCCCAAGA,-0.197
4,ATATATCA,0.0489
5,GTGGTCCA,0.153
6,GTGCATAA,0.0793
7,ACCATGAA,0.221
8,ACCAAACT,0.234
9,GCTTCCAC,-0.232
10,AGTTGGCC,-0.0785
11,ATGCCAGA,0.029
12,CGGGCGCC,-0.225
13,ATTAGATG,0.19
14,CATTCAAC,0.101
15,TAAGGGAA,0.00584
16,CATCCGGC,-0.256
17,TTAAAGAA,0.223
18,CGTTATAC,-0.00572
19,CCTCGGCC,0.0982
20,ACACCCAC,0.0526
21,CAAATAAG,-0.0503
22,AGTAACTA,0.219
23,AGACACTC,-0.199
24,AGAACCGC,0.209
25,TCACTAGA,0.0322

row,Sequence,PBM E-score
1,CTTAGTCC,-0.156
2,CGTGTGGA,-0.158
3,TAGCCGAA,0.00265
4,TACCGCTA,0.152
5,CAGTAATG,0.0599
6,ATACTCTA,-0.0192
7,GCAGTAAC,0.0575
8,AACCCGTC,0.147
9,GTCGCCGA,-0.169
10,ACTTCAAC,0.0925
11,AAAAACTA,0.175
12,GAGACACA,0.0212
13,GACAAATA,-0.0476
14,AGGACTCG,-0.134
15,CAGGGATC,-0.155
16,ACCCGCAC,0.217
17,TGATTGCA,0.0102
18,AGGATTGC,-0.224
19,AAATCCCG,-0.05
20,CAGACGGG,-0.292
21,ATGATATC,0.00647
22,CGCCGCTC,-0.17
23,ATGAGCCA,-0.11
24,CCCCACGC,-0.0232
25,GGATTAAC,-0.0122

row,Sequence,PBM E-score
1,CCCGCCTA,-0.0132
2,AAGCCCGA,-0.16
3,AATAAGAC,-0.0873
4,CGTCTAGC,-0.21
5,CGAGAATC,-0.206
6,ATCGACCA,-0.143
7,ACACAATC,0.00143
8,TGTCAGAA,-0.00066
9,GCTACAAA,0.0887
10,ATGCAACC,0.243
11,ACGTTGAA,0.0592
12,CATGCACG,-0.246
13,AAGGATGA,-0.164
14,CACTATTC,0.127
15,CTGGACCA,-0.0935
16,AAGAGATG,-0.16
17,AAGTTCGG,0.0638
18,GGTGCCAA,0.00512
19,ACACTTGG,0.0219
20,ATCGGCTC,-0.0563
21,ACTTCGAG,0.0218
22,AGGTAGGG,0.219
23,AAACATCA,0.0836
24,GACCTTGA,0.34
25,AGACGTTA,-0.175

row,Sequence,PBM E-score
1,AGAATTCC,0.00254
2,CTAGCTCA,-0.147
3,AGTATGCC,-0.175
4,CATGGATC,-0.0514
5,AGGAGCAA,-0.151
6,CTGGTCGA,-0.211
7,AATTCGAA,0.0449
8,GATAGTTA,0.0641
9,ACGGTTTC,-0.0123
10,ACGTCTCA,-0.0794
11,GCACATAC,-0.275
12,CACGTGAG,-0.116
13,GCCCGATA,-0.109
14,CCGCAAAG,0.046
15,CGTAGTAA,-0.07
16,AATCCAGG,0.0899
17,AATGCGAT,-0.162
18,ACAGACGA,-0.102
19,TCCGAGCA,-0.0445
20,CCAAAGGC,-0.141
21,ACCTAGCA,0.036
22,AAGATATG,0.127
23,GAAGGCAA,-0.0731
24,AGCCAATC,-0.277
25,GCTATGAC,-0.129

row,Sequence,PBM E-score
1,ACGTCAGC,-0.143
2,CCGTCACG,-0.0299
3,GAGTGGAA,-0.0794
4,AGGGCCAA,-0.187
5,AGCCCATC,-0.153
6,ACGACACT,-0.0276
7,ACAGTCGC,-0.115
8,CCACTCTC,-0.14
9,AGGCTCGA,-0.18
10,CCGACCAA,-0.0126
11,GGGCAGCA,-0.212
12,GCAAGACA,-0.115
13,CTGTCGAC,-0.0341
14,GTTAATAA,0.232
15,CCACGGCG,0.00048
16,TGGCCCAA,0.0284
17,ACGAGTGG,-0.0531
18,AGTGATTG,-0.0184
19,CCGGTGGA,-0.19
20,ACGTCGTA,-0.287
21,ATTCTAGA,0.0739
22,AAGGTAGG,0.179
